The name of at least one read-out is uncertain.
System: human acute promyelocytic leukemia cell strain HL-60
Test: Differentiation induction of HL-60 cells, NBT-reducing ability
Format: cell-based
Details: four days, NBT-positive cells
Experimental: Cells of human acute promyelocytic leukemia cell strain HL-60 were cultured in a CO2 incubator (5% CO2, 37° C.) using the RPMI medium containing 5% FBS. Differentiation inducing action of the compounds of the present invention on the HL-60 cells were evaluated on the basis of ability to reduce nitroblue tetrazolium (NBT) determined by observing differentiation from promyelocytic cells into granulocytic cells as an index. As positive control of retinoid compounds, retinoic acid and Am80 [4-[(5,6,7,8-tetrahydro-5,5,8,8-tetramethyl-2-naphthalenyl)carbamoyl]benzoic acid] were used. The cells that entered into the logarithmic phase and reached a substantially confluent state were centrifuged at 1000 rpm for 5 minutes, and the culture supernatant was removed. The cell pellet was suspended in fresh RPMI medium containing 5% FBS at a density of 8.0×10^4 cells/ml, then the suspension was added with a test compound dissolved in DMSO at an intended concentration, and the cells were cultured for four days and then used for the experiment. The samples were prepared so as to have the same DMSO concentration.
Cell count of the cells after the culture for a predetermined period was determined by a cell counting method using a blood cell counting chamber. The NBT-reducing ability was obtained as follows. NBT was dissolved in a phosphate buffered saline (PBS(−)) at a concentration of 0.2%, and the solution was added with an equivalent volume of the RPMI medium containing 5% FBS. The mixture was added with phorbol 12-myristate 13-acetate (tPA) at a concentration of 0.2 μM (about 200 ng) to prepare a reagent solution. The collected cells were centrifuged at 1000 rpm for 5 minutes, the supernatant was removed, and the remained cell pellet was added with the reagent solution. The mixture was incubated on a water bath at 37° C. for 20 minutes, and then NBT-reduced stained positive cells were counted by using the counting chamber to calculate a differentiation induction ratio.

SMILES	Differentiation induction ratio (%) (1 × 10^−7M)	Differentiation induction ratio (%) (1 × 10^−8M)
C/C(=C\C(=O)Nc1ccc(C(=O)O)cc1)c1cc(C(C)C)c(C(C)C)o1 [Compound 11, 4-[[3-(4,5-Diisopropyl-2-furanyl)crotonoyl]amino]benzoic acid]	41.5%	6.9%
CC(C)c1cc(C(=O)Nc2ccc(CCC(=O)O)cc2)oc1C(C)C [Compound 6, 3-[4-[(4,5-Diisopropylfuran-2-carbonyl)amino]phenyl]propionic acid]	9.3%	4.2%
CC(C)c1cc(C(=O)Nc2ccc(C(=O)O)cc2)[nH]c1C(C)C [Compound 12, 4-[(4,5-Diisopropylpyrrole-2-carbonyl)amino]benzoic acid]	39.1%	8.3%
CC(C)c1[nH]c(C(=O)Nc2ccc(C(=O)O)cc2)c(C(C)C)c1C(C)C [Compound 14, 4-[(3,4,5-Triisopropylpyrrole-2-carbonyl)amino]benzoic acid]	5.9%	2.4%
CC1(C)CCC(C)(C)c2cc(NC(=O)c3ccc(C(=O)O)cc3)ccc21 [Am80, 4-[(5,6,7,8-tetrahydro-5,5,8,8-tetramethyl-2-naphthalenyl)carbamoyl]benzoic acid, reference compound]	65-78%	66-78%
CC(C)c1cc(C(=O)Nc2ccc(C(=O)O)cc2)oc1C(C)C [Compound 1, 4-[(4,5-Diisopropylfuran-2-carbonyl)amino]benzoic acid]	45.2%	45.3%
CC(C)c1cc(C(=O)Nc2cccc(C(=O)O)c2)oc1C(C)C [Compound 5, 3-[(4,5-Diisopropylfuran-2-carbonyl)amino]benzoic acid]	6.1%	7.0%
CC(C)c1cc(C(=O)Nc2ccc(C(=O)O)cc2)sc1C(C)C [Compound 15, 4-[(4,5-Diisopropylthiophene-2-carbonyl)amino]benzoic acid]	57.1%	53.3%
CC(C)c1cc(C(=O)Nc2ccc(C(=O)O)s2)oc1C(C)C [Compound 9, 5-[(4,5-Diisopropylfuran-2-carbonyl)amino]thiophene-2-carboxylic acid]	39.8%	7.7%
CC(C)c1cc(C(C)C)c(C(=O)Nc2ccc(C(=O)O)cc2)[nH]1 [Compound 13, 4-[(3,5-Diisopropylpyrrole-2-carbonyl)amino]benzoic acid]	2.6%	3.7%
CC(C)c1cc(C(=O)Nc2ccc(C(=O)O)nc2)oc1C(C)C [Compound 7, 5-[(4,5-Diisopropylfuran-2-carbonyl)amino]pyridine-2-carboxylic acid]	43.5%	7.5%
CC(C)c1cc(C(=O)Nc2ccc(OCC(=O)O)cc2)oc1C(C)C [Compound 3, 4-[(4,5-Diisopropylfuran-2-carbonyl)amino]phenyloxyacetic acid]	5.8%	4.9%
CC(C)c1cc(C(=O)Nc2ccc(C(=O)O)cn2)oc1C(C)C [Compound 8, 6-[(4,5-Diisopropylfuran-2-carbonyl)amino]pyridine-3-carboxylic acid]	68.6%	65.1%
CC(C)c1cc(/C=C/C(=O)Nc2ccc(C(=O)O)cc2)oc1C(C)C [Compound 10, 4-[[3-(4,5-Diisopropyl-2-furanyl)acryloyl]amino]benzoic acid]	31.6%	10.2%

Reference: patent publication US8722730B2, “5-membered heterocyclic compound” (Research Foundation Itsuu Laboratory, priority 2007, dated 2014)
